In PubChem BioAssay AID588342 (National Center for Advancing Translational Sciences (NCATS), 2011):
Values joined by “and” are separate entries in the source; they are usually repeats but may differ in a detail not shown here. Equal values may be shown once. Among all 360,000 compounds or so, about 25,000 (6.9%) were called active. This list was built around the results that the source calls inconclusive (neither active nor inactive); the mix of calls is not that of the screen. Calls come from the whole dose curve; as a rule, active = well fitted inhibition curve with a large enough effect; inconclusive = small, poorly fitted or top-dose-only effect; inactive = flat fitted curve, though single readings scatter. Potencies of inconclusive entries are doubtful fits and often do not repeat.

molecular target: Luciferin 4-monooxygenase (Photinus pyralis) (UniProt P08659); assay: qHTS profiling assay for firefly luciferase inhibitor/activator using purifed enzyme and Km concentrations of substrates (counterscreen for miR-21 project); conditions: purified FLuc, luminescence inhibition; activity change, negative = inhibition: at 57.5 µM (top of the series); note: nearly all actives have a fitted effect of over 55% in size;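 for activity change, negative = inhibition: plate controls were vehicle for no effect and reference inhibitor for full effect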
Method in brief: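 Purified P. pyralis luciferase (10nM final) with 10uM D-luciferin and 10uM ATP (Km levels) in 50mM Tris acetate pH 7.5, 10mM Mg acetate, 0.01% Tween-20, 0.05% BSA; qHTS 6-point titration, ~60 µM downward; luminescence read.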
Potency is the fitted concentration of half-maximal effect; tags give direction and shape of the fitted curve.

Sequence of UniProt P08659 (P08659 whole entry, looked up): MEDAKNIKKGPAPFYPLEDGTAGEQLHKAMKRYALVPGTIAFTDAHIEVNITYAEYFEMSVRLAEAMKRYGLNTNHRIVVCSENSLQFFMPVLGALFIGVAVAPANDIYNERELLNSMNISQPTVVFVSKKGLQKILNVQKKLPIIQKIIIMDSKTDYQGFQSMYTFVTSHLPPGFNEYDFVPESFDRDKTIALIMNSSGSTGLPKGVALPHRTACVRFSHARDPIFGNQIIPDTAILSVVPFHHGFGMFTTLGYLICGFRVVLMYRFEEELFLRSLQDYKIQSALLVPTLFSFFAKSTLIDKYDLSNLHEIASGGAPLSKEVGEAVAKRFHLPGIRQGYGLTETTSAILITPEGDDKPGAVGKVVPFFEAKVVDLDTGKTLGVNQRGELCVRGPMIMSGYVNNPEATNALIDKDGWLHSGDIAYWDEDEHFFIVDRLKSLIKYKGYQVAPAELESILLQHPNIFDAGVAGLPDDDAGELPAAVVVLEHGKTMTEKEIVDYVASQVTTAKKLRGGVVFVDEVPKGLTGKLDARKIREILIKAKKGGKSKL

Row | SMILES | Potency | activity change, negative = inhibition
1 | Oc1[nH]c2ccccc2c1C=Nc1ccccc1 | inconclusive: 3.38 µM [inhibitor, full curve] | 
2 | CC(C)c1ccc(OCC(=O)NNC(=S)NC(=O)c2ccco2)c(Br)c1 | inconclusive: 5.36 µM [inhibitor, partial curve, poor fit] | 
3 | C/C(=N\N1C(=O)c2ccccc2NC1c1ccco1)c1ccccc1O (configuration not stated) | inconclusive: 26.9 µM [inhibitor, single point] | 
4 | COc1c(C(=O)NNC(=O)c2ccccc2Cl)csc1Br | active: 21.3 µM | 
5 | COc1cccc(-n2c(SCC(=O)Nc3ccc(F)cc3F)nc3c([nH]c4ccccc43)c2=O)c1 |  | inactive: -0.712%
6 | O=C(c1ccc2ccccc2c1)N1CCc2ccccc21 | inconclusive: 23.9 µM [inhibitor, partial curve] | 
7 | c1csc(-c2nc3ccccn3c2Nc2ccc3c(c2)OCCO3)c1 | inconclusive: 19 µM [inhibitor, partial curve] | 
8 | Cc1ccc(S(=O)(=O)Nc2cccc(C(=O)NCc3ccc(S(N)(=O)=O)cc3)c2)cc1 |  | inactive: 2.8%
9 | Cc1ccc(C(=O)Nc2ccc3[nH]c(=O)[nH]c3c2)c(C)c1 | inconclusive: 30.1 µM [inhibitor, single point] | 
10 | Cc1ccc(-n2ncc3c(NCCCn4ccnc4)ncnc32)cc1 | active: 12 µM | 
11 | CSc1ccc(-c2nc(CSCC(=O)NCCCN3CCCC3=O)c(C)o2)cc1 | inconclusive: 37.9 µM [inhibitor, partial curve, poor fit] | 
12 | CCN(CC)C1CCN(C(=O)c2cc(COc3ccc(F)cc3Cl)on2)C1 (configuration not stated) | inconclusive: 37.9 µM [inhibitor, partial curve, poor fit] | 
13 | Cc1ccc(NC(=O)c2cc(-c3cccs3)on2)cc1C | inconclusive: 2.39 µM [inhibitor, full curve, poor fit] and inconclusive: 3.79 µM [inhibitor, full curve] | 
14 | COc1ccc(C(=O)NNC(=S)NC(=O)c2ccccc2)cc1 |  | inactive: -0.103%
15 | Cc1ccc2nc(N3CCN(C(=O)c4ccco4)CC3)c3nncn3c2c1 | inconclusive: 23.9 µM [inhibitor, partial curve, poor fit] | 
16 | CCc1ccc(CN(C)C(=O)c2cc(COc3c(F)cccc3F)on2)cc1 | inconclusive: 23.9 µM [inhibitor, single point] | 
17 | Cc1ccc(-n2nc3ccc(NC(=O)/C=C/c4ccco4)cc3n2)cc1 | inconclusive: 9.53 µM [inhibitor, partial curve] | 
18 | O=C(Oc1ccccc1)c1ccc2nsnc2c1 | inconclusive: 26.9 µM [inhibitor, single point] | 
19 | Cc1cnc(SCc2ccc(Cl)cc2Cl)[nH]c1=O | active: 21.3 µM | 
20 | O=C(NCc1ccco1)c1cc(-c2ccccc2)on1 | inconclusive: 2.39 µM [inhibitor, full curve] | 
21 | O=C(Nc1ccc(S(=O)(=O)Nc2cnc3ccccc3n2)cc1)c1cccc(OC(F)F)c1 | inconclusive: 37.9 µM [inhibitor, single point] | 
22 | CC(=O)Oc1ccc(N2C(=O)C3C4C=CC(CO)(O4)C3C2=O)cc1 (configuration not stated) | inconclusive: 21.3 µM [inhibitor, partial curve, poor fit] | 
23 | CC(=O)N1c2ccc(S(=O)(=O)N3CCC(C(=O)NCc4ccccc4Cl)CC3)cc2CC1C (configuration not stated) |  | inactive: -0.275%

Row | SMILES | Potency | activity change, negative = inhibition
24 | COc1cccc(NC(=O)CN(C)C(=O)c2cn(-c3ccccc3)nc2-c2cccs2)c1 | inconclusive: 4.78 µM [inhibitor, partial curve, poor fit] | 
25 | Cc1ccc2nc(/C(C#N)=C\c3cc(O)ccc3[N+](=O)[O-])[nH]c2c1 | active: 19 µM | 
26 | CC(C)(C)c1ccc(C(=O)Cn2nc(C(=O)O)c3ccccc3c2=O)cc1 | active: 9.53 µM | 
27 | COc1ccc(-c2ccc(SCC(=O)NCc3ccc4c(c3)OCO4)nn2)cc1OC | inconclusive: 26.9 µM [inhibitor, partial curve] | 
28 | CN(C)c1ccc(C(CN)c2c[nH]c3ccccc23)cc1 (configuration not stated) | inconclusive: 37.9 µM [inhibitor, partial curve, poor fit] | 
29 | CCOc1ccc(/C=C2\SC(N3CCc4ccccc4C3)=NC2=O)cc1 | inconclusive: 37.9 µM [inhibitor, single point] | 
30 | O=C(NCc1ccccc1)c1cc(-c2ccco2)on1 | inconclusive: 9.53 µM [inhibitor, partial curve, poor fit] | 
31 | Cc1cccc(NS(=O)(=O)c2ccc(Cl)c(C(=O)Nc3ccccc3C)c2)c1 | inconclusive: 37.9 µM [inhibitor, partial curve, poor fit] | 
32 | O=C(O)Cc1cn(Cc2ccc(F)cc2)c2ccccc12 | inconclusive: 37.9 µM [inhibitor, partial curve, poor fit] | 
33 | CN(C)c1ccc(C(=O)Nc2nc3c(s2)CCCC3)cc1 | active: 0.239 µM | 
34 | Cc1ccc(C(=O)c2cn(Cc3cccc(F)c3)c3nc(C)ccc3c2=O)cc1 |  | inactive: 4.08%
35 | O=C(Cc1nc2ccccc2[nH]1)N/N=C/c1ccccc1 | active: 15.1 µM | 
36 | O=C(O)c1ccc(N2CC3CC(C2)c2cccc(=O)n2C3)c(NC(=S)Nc2ccc(Cl)cc2Cl)c1 (configuration not stated) | inconclusive: 33.8 µM [inhibitor, partial curve, poor fit] | 
37 | Cc1cc(/C=C2\SC(=S)NC2=O)c(C)n1-c1ccccc1 | active: 0.536 µM | 
38 | COc1ccc(C(=O)NCc2ccc3c(c2)CCN3C(=O)c2cccc(C)c2)cc1OC |  | inactive: -17.2%
39 | Cc1oc2ncnc(N3CCOCC3)c2c1C(=O)NCc1ccccc1 |  | inactive: -1.21%
40 | Cc1[nH]c2ccccc2c1/C=N/NC(=S)NCc1ccccc1 | inconclusive: 37.9 µM [inhibitor, single point] | 
41 | Cc1ccc(-c2cc3ncc4c(n3n2)-c2ccccc2OC4)cc1 | inconclusive: 2.39 µM [inhibitor, partial curve, poor fit] | 
42 | O=C(O)c1cc2ccc3cccc4ccc(c1)c2c34 | inconclusive: 26.9 µM [inhibitor, partial curve, poor fit] | 
43 | COc1ccc(C(=O)O/N=C(\N)c2ccccc2)c(OC)c1 | active: 1.69 µM | 
44 | CN(C)c1cccc(C(=O)OCC(=O)Nc2nccs2)c1 | inconclusive: 21.3 µM [inhibitor, single point] | 
45 | Cc1ccc(C2(C)NC(=O)N(CC(=O)Nc3ccccc3C(=O)N3CCCCC3)C2=O)cc1 (configuration not stated) |  | inactive: 0.472%
46 | O=C(Nc1nnc(S(=O)(=O)N2CCOCC2)s1)c1cccc(Br)c1 | inconclusive: 37.9 µM [inhibitor, partial curve, poor fit] and inconclusive: 23.9 µM [inhibitor, single point] | 

Row | SMILES | Potency | activity change, negative = inhibition
47 | CCCSc1nsc(SCCC)c1C#N | inconclusive: 19 µM [inhibitor, partial curve, poor fit] | 
48 | Cc1nc2c(C(=O)NCCc3ccccc3)c[nH]n2c(=O)c1Cc1ccccc1F | inconclusive: 37.9 µM [inhibitor, partial curve, poor fit] | 
49 | CCOC(=O)Nc1nc(-c2ccc(Cl)cc2Cl)cs1 | inconclusive: 21.3 µM [inhibitor, single point] | 
50 | O=C(N/N=C/c1cccs1)c1ccc(-n2cccc2)cc1 | inconclusive: 10.7 µM [inhibitor, partial curve, poor fit] | 
51 | Cc1ccc2c(c1)CC1(CN2C)C(=O)OC(C)(C)OC1=O | inconclusive: 7.57 µM [inhibitor, partial curve, poor fit] | 
52 | CN(CC(=O)Nc1ccc(Cl)c(S(=O)(=O)N(C)C)c1)Cc1ccccc1 | inconclusive: 19 µM [inhibitor, partial curve] | 
53 | COC(=O)c1sc(NC(=O)c2csc3c2CCCC3)nc1C | active: 2.39 µM | 
54 | O=C(COc1ccc(Cl)cc1Cl)NC(=O)NC1CCCC1 | active: 9.53 µM | 
55 | CCc1noc(C)c1C(=O)N1CCN(S(=O)(=O)c2c(C)c(C)cc(C)c2C)CC1 |  | inactive: -2.4%
56 | Cc1ccc(C(=O)Nc2nnc(S(=O)(=O)N3CCCc4ccccc43)s2)cc1 |  | inactive: -2.14%
57 | COc1ccc(CCNC(=O)c2ccc(CSCc3ccc(C)cc3)o2)cc1OC |  | inactive: -13%
58 | Cc1occc1C(=O)N/N=C/C1=C(N2CCOCC2)C(=C\c2ccc(Cl)cc2Cl)/CC1 |  | inactive: 2.46%
59 | O=C(CSCc1ccccc1)Nc1ccc(S(=O)(=O)Nc2ncccn2)cc1 |  | inactive: -2.11%
60 | CCn1c(NCc2cc(OC)ccc2OC)nc2ccccc21 | inconclusive: 23.9 µM [inhibitor, partial curve, poor fit] | 
61 | CCOc1ncccc1C(=O)Nc1ccc2c(c1)OCCCO2 | inconclusive: 26.9 µM [inhibitor, single point] | 
62 | CCc1nc(N[C@H](C(=O)O)C(C)C)c2oc3ccccc3c2n1 | inconclusive: 19 µM [inhibitor, partial curve, poor fit] | 
63 | CCOc1ccc(/C=N/NC(=O)c2ccc(O)cc2)cc1CN1CC2CC(C1)c1cccc(=O)n1C2 (configuration not stated) | inconclusive: 33.8 µM [inhibitor, partial curve, poor fit] | 
64 | O=C(Nc1ccc(OC(F)(F)F)cc1)C(NS(=O)(=O)c1cccc2nsnc12)c1ccccc1 (configuration not stated) | inconclusive: 23.9 µM [inhibitor, single point] | 
65 | CC(C)c1ccc(C(=O)Nc2nnc(S(=O)(=O)N3CCCCC3)s2)cc1 | inconclusive: 21.3 µM [inhibitor, partial curve, poor fit] | 
66 | CCS(=O)(=O)Nc1cccc(-c2nc3cccnc3s2)c1C | inconclusive: 19 µM [inhibitor, single point] | 
67 | O=C1CSC2(C(=O)N(Cc3c(F)cccc3Cl)c3ccccc32)N1c1ccc(F)c(F)c1 (configuration not stated) |  | inactive: -1.01%
